Assay results from PubChem BioAssay AID1460 (National Center for Advancing Translational Sciences (NCATS), 2008).
Several values for one entry are separate records, joined by “and”; a condition that tells them apart may be missing. Identical values can stand only once. Out of some 270,000 compounds screened, about 5,800 (2.1%) were called active. Inconclusive means that the source gave no clear call. Such entries were picked first, then a sample of the others. Calls follow the shape of the dose curve; as a rule, active = well fitted inhibition curve with a large enough effect; inconclusive = small, poorly fitted or top-dose-only effect; inactive = flat fitted curve, though single readings scatter. A potency beside an inconclusive call is a rough fit, not a confirmed value.
Also: nearly all actives have a fitted effect of over 55% in size.
Potency is read from the fitted curve at half-maximal effect; tags tell the direction and shape of the fitted curve.

Each compound was assayed against Microtubule-associated protein tau (Homo sapiens) (UniProt P10636) (assay: qHTS for Inhibitors of Tau Fibril Formation, Thioflavin T Binding). Conditions: recombinant tau K18 P301L (four-repeat tau fragment), heparin-induced fibrillization, ThT fluorescence; series mostly up to 57.4 µM.
UniProt P10636, sequence (P10636 whole entry, looked up, the tested form may be a part): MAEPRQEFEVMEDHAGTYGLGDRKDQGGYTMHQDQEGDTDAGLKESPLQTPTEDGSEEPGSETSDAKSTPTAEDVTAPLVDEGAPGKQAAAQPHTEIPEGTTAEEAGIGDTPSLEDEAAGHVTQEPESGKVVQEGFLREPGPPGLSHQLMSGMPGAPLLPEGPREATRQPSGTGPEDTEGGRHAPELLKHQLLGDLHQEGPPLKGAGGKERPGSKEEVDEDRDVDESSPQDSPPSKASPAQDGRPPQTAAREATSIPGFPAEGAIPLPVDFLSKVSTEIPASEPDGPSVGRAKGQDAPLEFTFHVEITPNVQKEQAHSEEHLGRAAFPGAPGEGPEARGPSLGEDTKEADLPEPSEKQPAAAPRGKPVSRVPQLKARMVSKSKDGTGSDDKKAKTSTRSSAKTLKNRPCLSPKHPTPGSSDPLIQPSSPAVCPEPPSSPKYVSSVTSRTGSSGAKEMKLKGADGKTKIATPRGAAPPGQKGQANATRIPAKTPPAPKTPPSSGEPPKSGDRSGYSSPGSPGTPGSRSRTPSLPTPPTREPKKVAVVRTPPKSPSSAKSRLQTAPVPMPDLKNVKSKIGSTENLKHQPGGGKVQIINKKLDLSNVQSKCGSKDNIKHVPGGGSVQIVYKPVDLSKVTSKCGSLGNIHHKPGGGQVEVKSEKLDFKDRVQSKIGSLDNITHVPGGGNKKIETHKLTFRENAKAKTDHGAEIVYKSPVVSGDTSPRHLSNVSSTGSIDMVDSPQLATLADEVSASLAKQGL
Summary of the method: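 Tau K18 P301L fragment (15 uM unlabeled plus 0.24 uM Alexa 594-labeled) in 100 mM sodium acetate pH 7 with compound, fibrillization induced by 20 uM heparin for 6 hr at 37 C. Thioflavin T (30 uM) added, fluorescence read after 1 hr (ex 450, em 510 nm).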
`N[C@H](Cc1ccc(O)c(O)c1)C(=O)O` was tested, and the Potency was active: 15.8 µM. With `CCOC(=O)c1[nH]nc(C(=O)c2ccc(Br)cc2)c1O` the Potency was inconclusive: 14.1 µM [inhibitor, partial curve]. `Cc1ccc(-n2c(N)c(C(=O)N3CCCCC3)sc2=S)cc1` was tested, and the Potency was inconclusive: 35.5 µM [inhibitor, partial curve]. With `CCOc1ccccc1NC(=O)c1c(NC(=O)Cc2ccccc2)sc2c1CCCC2` the Potency was “inactive”. `O=C(Nc1ccc2c(c1)OCO2)c1ccc(=O)[nH]n1` was tested, and the Potency was inconclusive: 31.6 µM [inhibitor, partial curve]. For `COc1cc(C(=O)OCC2CC(c3ccccc3)=NO2)cc(OC)c1OC` (configuration not stated), the Potency was inconclusive: 35.5 µM [inhibitor, single point]. `Cc1noc(NS(=O)(=O)c2ccc(NC(=O)CSc3nc4c(cc3C#N)CCC4)cc2)c1C` was tested, and the Potency was inconclusive: 7.94 µM [inhibitor, partial curve]. For `COc1cccc(C(=O)NCC(c2ccc(N(C)C)cc2)N2CCc3ccccc32)c1OC` (configuration not stated), the Potency was inconclusive: 31.6 µM [inhibitor, single point]. With `COc1ccc(-c2nc(Cn3c(SCc4cccc(F)c4)nc4cccnc43)c(C)o2)cc1` the Potency was inconclusive: 20 µM [inhibitor, partial curve]. `CN(NS(C)(=O)=O)c1ncc(C(F)(F)F)cc1Cl` was tested, and the Potency was “inactive”. `COc1ccc(NC(=O)/C(Cl)=C(/Cl)S(=O)Cc2ccccc2Cl)cn1` (configuration not stated) was tested, and the Potency was active: 8.91 µM. In the case of `CC(C)(C)NC(=O)NC(=O)CSc1ncn[nH]1`, the Potency is reported as “inactive”. For `Cc1nn(CC(=O)c2cccc(Cl)c2)c(C)c1[N+](=O)[O-]`, the Potency was “inactive”. `CO/N=C\CC(=O)Nc1ccc(Cl)cc1Cl` was tested, and the Potency was “inactive”. With `CSc1ccc(/C=N/n2c(Cc3ccc(Br)cc3)n[nH]c2=S)cc1` the Potency was inconclusive: 17.8 µM [inhibitor, partial curve]. `COc1ccc(S(=O)(=O)Cc2ccc(C(=O)NC(C)C)o2)cc1` was tested, and the Potency was “inactive”. For `C=CCNC(=S)Nc1cc(S(=O)(=O)N2CCOCC2)ccc1-n1cncn1`, the Potency was “inactive”. In the case of `Cc1ccc(-c2cc(C(=O)NN3CCOCC3)c3cc(Br)ccc3n2)o1`, the Potency is reported as inconclusive: 44.7 µM [inhibitor, single point]. For `CCOC(=O)c1ccc(NC(=O)c2c(NCc3cccc(OC)c3)sc3c2CCC3)cc1`, the Potency was inconclusive: 15.8 µM [inhibitor, partial curve]. In the case of `Cc1ccc(Sc2ccc(CO)cc2[N+](=O)[O-])cc1`, the Potency is reported as inconclusive: 25.1 µM [inhibitor, single point]. In the case of `O=C1C(C=NCc2ccco2)=C(O)c2ccccc21`, the Potency is reported as inconclusive: 22.4 µM [inhibitor, partial curve]. In the case of `O=C(Nc1ccc(F)cc1F)c1cc2ccc3cccnc3c2[nH]1`, the Potency is reported as inconclusive: 0.794 µM [inhibitor, full curve, poor fit]. In the case of `Cc1ccc(C(=O)OCC(=O)c2ccc(Cl)s2)s1`, the Potency is reported as “inactive”. In the case of `CC12CN3CC(C)(CN(C1)C3c1ccc(Cl)cc1Cl)C2O` (configuration not stated), the Potency is reported as inconclusive: 22.4 µM [inhibitor, single point]. In the case of `CC1=C(C(=O)Nc2cccc(Cl)c2)C2(CCCCCC2)OC1=O`, the Potency is reported as “inactive”. `COc1ccc(-n2c(Cc3cccn3C)nnc2SCC(=O)Nc2cccc(C)c2C)cc1` was tested, and the Potency was inconclusive: 25.1 µM [inhibitor, partial curve, poor fit]. For `O=C1C=CC2=C3c4cc(O)c(O)cc4CC3(O)COC2=C1O` (configuration not stated), the Potency was active: 3.55 µM and active: 3.16 µM. For `O=C(O)CC(SCC(=O)Nc1ccccc1)C(=O)O` (configuration not stated), the Potency was “inactive”. For `O=C(c1sc2cc([N+](=O)[O-])ccc2c1Cl)N1CCCCC1`, the Potency was inconclusive: 22.4 µM [inhibitor, partial curve]. In the case of `O=C(Nc1ccc(-c2cn3cccnc3n2)cc1)c1ccccc1F`, the Potency is reported as inconclusive: 0.0631 µM [inhibitor, full curve]. `Cc1ccc(OCc2ccc(-c3nc(C#N)c(N4CCN(c5cccc(Cl)c5)CC4)o3)o2)cc1` was tested, and the Potency was “inactive”. With `COc1cc(C(c2c(C)[nH][nH]c2=O)c2c(C)[nH][nH]c2=O)cc(OC)c1OC` the Potency was inconclusive: 10 µM [inhibitor, partial curve]. `O=C(N/N=C/c1ccccc1)c1cc(-c2ccc3c(c2)OCO3)n[nH]1` was tested, and the Potency was inconclusive: 0.562 µM [inhibitor, single point]. With `CCOc1ccccc1CNC(=O)CCCn1nc(C)c2sc3ccccc3c2c1=O` the Potency was inconclusive: 28.2 µM [activator, partial curve]. For `COc1cccc(C(=O)C(C#N)=C(SC)SC)c1`, the Potency was active: 25.1 µM. For `CCN(CC)CCCCn1c(-c2ccccc2)nc2c(NC3CCCCC3)nc(C)nc21`, the Potency was “inactive”. In the case of `COc1ccc(-c2nnc(SCC(=O)Nc3cc(C)on3)n2N)cc1OC`, the Potency is reported as inconclusive: 2.82 µM [inhibitor, full curve]. For `CCc1nc2ccccc2n1CCCCOc1ccc(Cl)cc1`, the Potency was inconclusive: 22.4 µM [inhibitor, partial curve]. With `COc1ccc(/C=C2\SC(N3CCc4ccccc4C3)=NC2=O)cc1OC` the Potency was inconclusive: 14.1 µM [inhibitor, partial curve]. For `CC(=O)Nc1c(Cl)n(C(C)=O)c2ccccc12`, the Potency was inconclusive: 12.6 µM [inhibitor, single point]. For `O=C(Cc1ccc([N+](=O)[O-])cc1)c1c(O)cc(O)cc1O`, the Potency was inconclusive: 20 µM [inhibitor, partial curve]. `CCN(/C=N/c1sc2c(c1C#N)CCCCC2)CC` was tested, and the Potency was inconclusive: 31.6 µM [inhibitor, single point]. In the case of `CC(=O)Nc1nc2n(n1)C(c1ccc(Cl)cc1)C=C(C)N2` (configuration not stated), the Potency is reported as “inactive”. With `Cc1cccc(OCC(=O)Nc2c(C(=O)N3CCN(c4ccccc4)CC3)oc3ccccc23)c1` the Potency was “inactive”. With `CCC(C)(C)NC(=O)COc1ccc(OCc2ccccc2)cc1` the Potency was inconclusive: 6.31 µM [inhibitor, partial curve, poor fit]. `CCNC(=S)Nc1ccc(N2CCCCC2)cc1` was tested, and the Potency was inconclusive: 28.2 µM [inhibitor, single point]. In the case of `COc1ccc(C(=O)Nc2cc3cc(Cl)ccc3oc2=O)cc1OC`, the Potency is reported as “inactive”.
